The assay addresses T1, E. coli RNase P holoenzyme (M1 P RNA + rnpA protein) (UniProt P0A7Y8).
T1 sequence: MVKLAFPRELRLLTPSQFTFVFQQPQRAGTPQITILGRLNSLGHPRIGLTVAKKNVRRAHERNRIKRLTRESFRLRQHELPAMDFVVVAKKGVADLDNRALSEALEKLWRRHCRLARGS
Briefly: relative kcat/Km (krel) vs genomic leader AAAGAU (relative (reference leader = 1)); higher = faster RNase P cleavage. As for the experimental part: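 HTS-Kin: a pool of ptRNA-Met (21C construct) with all 4096 combinations of 5' leader nucleotides N(-6) to N(-1) was processed in vitro by E. coli RNase P (P RNA + rnpA/C5 protein) under multiple-turnover conditions at 37 C, pH 8, 17.5 mM MgCl2. Residual substrate was Illumina-sequenced at several fractions reacted, and relative kcat/Km (krel) was computed by internal competition kinetics, calibrated to the genomic leader (AAAGAU = 1). The listed hexamer is the varied N(-6)..N(-1) leader (DNA letters), and it sits between a fixed 5' stem-loop flank (GCAUGCACGAAAGUGCGUGCUAUGAA) and the mature tRNA-Met starting GGCUACGUAGCUCAGUUGG. Two technical replicates are averaged.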

[1] abbreviates: fraction of substrate reacted: ~9-10% (9.79% repeat 1, 9.1% repeat 2).
The mark [2] stands for this setting: fraction of substrate reacted: ~13-16% (15.68% repeat 1, 13.17% repeat 2).
Setting [3] is: fraction of substrate reacted: ~26-29% (28.66% repeat 1, 26.4% repeat 2).

From the supplement of paper PMC9433436 come the findings set out here.

± gives the standard deviation of the averaged measurements. The full ranking holds about 4,100 sequences; the median of “relative kcat/Km (krel) vs genomic leader AAAGAU” is about 1.7, and the highest 2% start at about 6.5. The entries are a selection whose mix differs from that of the whole data set.

Consider CATCGC, for which the “relative kcat/Km” value under setting [1] came to 2.84 ± 0.85, the “relative kcat/Km” value under setting [2] worked out at 3.69 ± 0.25 and the “relative kcat/Km” value under setting [3] was 5.21 ± 1.9.

For GTGCTG, under setting [3], the “relative kcat/Km” value was found to be 0.51 ± 0.48.

Turning to TAGTTG, under setting [3], the “relative kcat/Km” value was determined as 1.33 ± 0.37.

Consider GTTCGG, for which the “relative kcat/Km” value under setting [3] is 0.742 ± 0.18.

As for TGCTCG, the “relative kcat/Km” value amounted to 0.457 ± 0.37 under setting [1] and 1.71 ± 0.051 under setting [3].

In the case of AGATTC, the “relative kcat/Km” value is, setting by setting: under setting [1], 2.65 ± 0.82; under setting [2], 2.57 ± 0.67; under setting [3], 3.74 ± 1.6.

Turning to AAAATG, the “relative kcat/Km” value under setting [3] was determined as 0.793 ± 0.38.

As for GTTAAG, the “relative kcat/Km” value reads like this: under setting [2], 1.6 ± 0.16; under setting [3], 2.65 ± 0.77.

As for TTTTAG, the “relative kcat/Km” value is, setting by setting: under setting [1], 3.3 ± 2.5; under setting [2], 2.5 ± 0.78; under setting [3], 4.51 ± 1.2.

Consider CTTAGA, for which the “relative kcat/Km” value under setting [1] came out at 3.03 ± 0.85, the “relative kcat/Km” value under setting [2] is 3.18 ± 0.44 and the “relative kcat/Km” value under setting [3] was 4.79 ± 1.7.

As to AACTCC, the “relative kcat/Km” value by setting is: under setting [1], 3 ± 2.2; under setting [2], 3.3 ± 0.49; under setting [3], 4.38 ± 1.3.

On to TCAGCG, for which the “relative kcat/Km” value under setting [3] was 0.852 ± 0.32.

AATAAC: the “relative kcat/Km” value amounted to 2.46 ± 1.3 under setting [1], 2.86 ± 0.11 under setting [2] and 3.66 ± 1.1 under setting [3].

In the case of CCGTTC, the “relative kcat/Km” value turned out to be 2.74 ± 1.7 under setting [1], 2.34 ± 0.28 under setting [2] and 3.54 ± 0.68 under setting [3].

As to GACTCA, the “relative kcat/Km” value runs as follows: under setting [1], 3.33 ± 1.5; under setting [2], 4.56 ± 0.1; under setting [3], 5.69 ± 2.1.

For GTTATT, the “relative kcat/Km” value reads like this: under setting [1], 1.78 ± 0.16; under setting [2], 2.68 ± 0.28; under setting [3], 3.9 ± 1.9.

For the sequence ATTTTA, the “relative kcat/Km” value under setting [1] was determined as 2.22 ± 0.48, the “relative kcat/Km” value under setting [2] turned out to be 2.43 ± 0.12 and the “relative kcat/Km” value under setting [3] is 3.11 ± 1.1.

As for AGGGAG, under setting [3], the “relative kcat/Km” value stood at 0.775 ± 0.073.

As to CAGGCG, the “relative kcat/Km” value under setting [1] came out at 0.776 ± 0.41.

For the sequence GTAGAT, the “relative kcat/Km” value under setting [1] came to 1.19 ± 0.47, the “relative kcat/Km” value under setting [2] is 1.41 ± 0.04 and the “relative kcat/Km” value under setting [3] turned out to be 2.1 ± 0.79.

On to TACGAT, for which the “relative kcat/Km” value by setting is: under setting [1], 2.93 ± 1.5; under setting [2], 2.79 ± 0.68; under setting [3], 3.63 ± 1.5.

Turning to TGGCAT, the “relative kcat/Km” value under setting [3] turned out to be 1.26 ± 0.7.

Consider CTCACT, for which the “relative kcat/Km” value is, setting by setting: under setting [1], 3.55 ± 1.3; under setting [2], 3.5 ± 0.33; under setting [3], 5.38 ± 1.7.

On to TGACCT, for which the “relative kcat/Km” value under setting [1] is 1.91 ± 0.94, the “relative kcat/Km” value under setting [2] is 1.72 ± 0.11 and the “relative kcat/Km” value under setting [3] was 2.09 ± 0.76.

As to AACGAT, the “relative kcat/Km” value turned out to be 1.34 ± 0.68 under setting [1], 1.53 ± 0.49 under setting [2] and 1.68 ± 0.58 under setting [3].

In the case of ACGAAC, the “relative kcat/Km” value is, setting by setting: under setting [1], 2.86 ± 1.4; under setting [2], 2.57 ± 0.6; under setting [3], 3.33 ± 1.3.

Regarding GGCTCG, the “relative kcat/Km” value under setting [1] was 1.09 ± 0.45, the “relative kcat/Km” value under setting [2] amounted to 0.455 ± 0.17 and the “relative kcat/Km” value under setting [3] was 1.597 ± 0.0082.

Regarding CTTACC, the “relative kcat/Km” value reads like this: under setting [1], 1.75 ± 0.076; under setting [2], 1.78 ± 0.38; under setting [3], 2.28 ± 0.67.

As to CGACCT, the “relative kcat/Km” value runs as follows: under setting [1], 1.28 ± 0.024; under setting [2], 1.86 ± 0.38; under setting [3], 2.11 ± 0.77.

Turning to TCTGTC, the “relative kcat/Km” value under setting [1] was determined as 1.29 ± 0.12, the “relative kcat/Km” value under setting [2] came out at 1.05 ± 0.53 and the “relative kcat/Km” value under setting [3] was 2.09 ± 0.85.

As to GCCCGC, the “relative kcat/Km” value was found to be 2.491 ± 0.012 under setting [1], 2.89 ± 1.8 under setting [2] and 4.32 ± 1.4 under setting [3].

As to GACCAG, the “relative kcat/Km” value under setting [2] stood at 0.798 ± 0.15 and the “relative kcat/Km” value under setting [3] amounted to 3.13 ± 0.57.

On to AGGATC, for which the “relative kcat/Km” value is 0.543 ± 0.0099 under setting [1], 1.07 ± 0.2 under setting [2] and 1.18 ± 0.84 under setting [3].

On to ACAGTC, for which the “relative kcat/Km” value reads like this: under setting [1], 1.18 ± 0.77; under setting [2], 1.42 ± 0.41; under setting [3], 1.71 ± 0.69.

As to GCTCAA, the “relative kcat/Km” value is, setting by setting: under setting [1], 1.41 ± 0.98; under setting [2], 1.24 ± 0.71; under setting [3], 1.88 ± 0.14.

TGAAGG: the “relative kcat/Km” value by setting is: under setting [1], 0.0917 ± 0.075; under setting [3], 0.667 ± 0.34.

For GGAGAT, the “relative kcat/Km” value amounted to 1.79 ± 0.18 under setting [1], 1.53 ± 0.24 under setting [2] and 2.1 ± 0.62 under setting [3].

Regarding TAGTGA, the “relative kcat/Km” value under setting [1] came out at 1.59 ± 0.54, the “relative kcat/Km” value under setting [2] was found to be 1.54 ± 0.78 and the “relative kcat/Km” value under setting [3] turned out to be 3.06 ± 1.1.

Regarding ATCTAG, the “relative kcat/Km” value is 2.49 ± 0.96 under setting [1], 3.16 ± 1 under setting [2] and 5.72 ± 2.4 under setting [3].

Consider GAATGA, for which the “relative kcat/Km” value under setting [1] was determined as 2.12 ± 0.48, the “relative kcat/Km” value under setting [2] is 3.32 ± 1.1 and the “relative kcat/Km” value under setting [3] came out at 4.36 ± 1.5.

With GGATAG, the “relative kcat/Km” value runs as follows: under setting [1], 1.13 ± 0.12; under setting [2], 1.11 ± 0.16; under setting [3], 2.68 ± 0.8.

ACACTC: the “relative kcat/Km” value under setting [1] turned out to be 1.93 ± 1.6, the “relative kcat/Km” value under setting [2] came out at 1.9 ± 0.66 and the “relative kcat/Km” value under setting [3] stood at 2.74 ± 0.89.

Turning to CGCATG, the “relative kcat/Km” value under setting [3] was 1.43 ± 0.34.

For AATATT, the “relative kcat/Km” value runs as follows: under setting [1], 2.25 ± 1.6; under setting [2], 2.08 ± 0.12; under setting [3], 2.97 ± 1.1.

For ATTACG, the “relative kcat/Km” value under setting [3] came to 1.45 ± 0.32.

Consider ATCAAG, for which the “relative kcat/Km” value is, setting by setting: under setting [2], 1.96 ± 0.14; under setting [3], 3.87 ± 0.91.

With AAGTTA, the “relative kcat/Km” value under setting [1] stood at 1.8 ± 0.12, the “relative kcat/Km” value under setting [2] amounted to 2.04 ± 0.28 and the “relative kcat/Km” value under setting [3] was 2.63 ± 1.1.

On to TAGCAA, for which the “relative kcat/Km” value under setting [1] was 3.45 ± 2.1, the “relative kcat/Km” value under setting [2] amounted to 2.89 ± 0.52 and the “relative kcat/Km” value under setting [3] was 3.82 ± 1.1.

For the sequence GGTGCT, the “relative kcat/Km” value worked out at 0.671 ± 0.2 under setting [1] and 0.728 ± 0.13 under setting [3].

As to CACGAC, the “relative kcat/Km” value by setting is: under setting [1], 3.62 ± 0.058; under setting [2], 5.56 ± 2.7; under setting [3], 7.35 ± 3.

TTTCCA: the “relative kcat/Km” value under setting [1] amounted to 2.16 ± 1.9, the “relative kcat/Km” value under setting [2] was determined as 1.53 ± 0.7 and the “relative kcat/Km” value under setting [3] came out at 1.96 ± 0.23.

With GGAGAG, the “relative kcat/Km” value under setting [3] was 1.19 ± 0.14.

On to ATACAG, for which the “relative kcat/Km” value is, setting by setting: under setting [2], 0.502 ± 0.011; under setting [3], 1.55 ± 0.32.

On to TGTAAT, for which the “relative kcat/Km” value stood at 2.34 ± 0.17 under setting [1], 3.51 ± 0.42 under setting [2] and 5.46 ± 2.6 under setting [3].
